In the supplement of paper PMC3334620:
In all, about 33,000 sequences were measured (“E-score (-0.5 to 0.5)”: median about -0.012, highest 2% from about 0.27 on). This is one part of the list.

Each sequence was assayed against T1, Vhr1 (UniProt P40522) (assay: PBM E-score (8-mer binding enrichment) (E-score (-0.5 to 0.5)); higher = stronger / more preferred TF binding; most listed sequences are background and not binding sites). Conditions: protein concentration: 200 nM; construct: GST-full length.
T1 sequence: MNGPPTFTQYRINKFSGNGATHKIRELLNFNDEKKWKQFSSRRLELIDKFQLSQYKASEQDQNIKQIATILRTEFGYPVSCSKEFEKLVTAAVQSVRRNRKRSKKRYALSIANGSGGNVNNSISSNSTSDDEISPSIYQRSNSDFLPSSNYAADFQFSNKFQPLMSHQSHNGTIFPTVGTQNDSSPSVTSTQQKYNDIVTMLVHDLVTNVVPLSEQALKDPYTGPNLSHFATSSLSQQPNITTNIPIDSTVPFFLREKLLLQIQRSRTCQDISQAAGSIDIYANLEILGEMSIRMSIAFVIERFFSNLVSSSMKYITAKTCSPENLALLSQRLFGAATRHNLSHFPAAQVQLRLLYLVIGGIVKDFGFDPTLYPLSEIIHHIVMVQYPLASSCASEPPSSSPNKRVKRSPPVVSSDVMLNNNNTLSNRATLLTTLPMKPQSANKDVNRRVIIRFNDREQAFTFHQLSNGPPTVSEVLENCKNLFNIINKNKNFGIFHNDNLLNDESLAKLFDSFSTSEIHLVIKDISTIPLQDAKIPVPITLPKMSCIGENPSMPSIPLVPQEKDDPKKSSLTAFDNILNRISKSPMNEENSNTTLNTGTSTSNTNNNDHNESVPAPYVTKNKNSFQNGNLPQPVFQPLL
How it was run: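 E-scores (a modified Wilcoxon-Mann-Whitney statistic) were assigned by the Universal PBM Analysis Suite to every ungapped eight-base word pooled with its reverse complement. The input came from universal all-10-mer Agilent arrays made double-stranded by primer extension and probed with GST-tagged yeast transcription factors at about 100-200 nM. Fluorescent anti-GST detected bound protein, and masliner normalised the scans.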

Row | Sequence | PBM E-score
1 | AAGCTCGA | 0.0263
2 | ACTGTTAC | 0.0454
3 | CAGTGAAA | -0.0161
4 | ATGTCTGA | 0.00358
5 | ATGTCGTG | -0.00889
6 | AGTTATAA | -0.144
7 | CTAATTCA | 0.00857
8 | CGCATGTA | 0.00809
9 | CGTACAAG | 0.0435
10 | GGTTTGGA | 0.0865
11 | CATATTAA | 0.0835
12 | ACAGCCGG | 0.216
13 | ACCAAGCA | 0.0753
14 | AGTTATGC | 0.0781
15 | ACCGCCTA | -0.0586
16 | ACAGCACC | 0.0656
17 | CCATTTTC | -0.0941
18 | GCGGGCCC | -0.0329
19 | CCCTCTTC | -0.157
20 | ATTCCCAA | 0.033
21 | ACTGCTCA | 0.0795
22 | GGTCCTTA | -0.12
23 | AGATTCCG | 0.0316
24 | GAAAACCA | -0.055
25 | ATCGCATA | 0.0401

Row | Sequence | PBM E-score
26 | ATGGGATA | 0.00589
27 | TGACTCAA | 0.468
28 | ATCCAAAT | 0.0439
29 | AGTTCCGC | -0.0148
30 | ACGAGGAT | -0.0091
31 | CTCCTTAC | -0.221
32 | AGCGTCCT | -0.0788
33 | GTTTTTCA | -0.102
34 | ACATTAAC | 0.234
35 | GTCCTCAC | 0.036
36 | CTCGTCTA | -0.159
37 | AAGTACAC | 0.086
38 | AAGCAATA | -0.0875
39 | ATAGGCCC | -0.0678
40 | AACGGCTA | -0.148
41 | GGCAGAAA | 0.122
42 | CGCTAGTC | -0.146
43 | ATTCAAGA | -0.0262
44 | GACGAACA | -0.0986
45 | CAAAAGGA | -0.2
46 | CGCACATA | -0.0814
47 | AGAGAGCT | -0.272
48 | CCAGGCCG | 0.0428
49 | AGTTGGGG | 0.0375
50 | AGAAGGTG | 0.1

Row | Sequence | PBM E-score
51 | AGTAGGAG | -0.0476
52 | GGGGTAAA | -0.139
53 | AGAAAGCT | -0.0857
54 | CCGCTAGA | -0.218
55 | GGGACTGA | -0.174
56 | CTGGATGA | -0.0299
57 | AGGCATCA | -0.181
58 | CGAAGAGA | -0.124
59 | ACGCCCAG | 0.0807
60 | CGCCGACC | -0.0628
61 | CCGCACCC | 0.118
62 | TCAGATAA | 0.0383
63 | AACAGTCC | 0.0181
64 | AGATCGCA | -0.0736
65 | AGGAAGCG | 0.0063
66 | ACGGACCT | 0.00876
67 | GGCGGGCA | 0.198
68 | GGTTATAC | -0.0144
69 | CACGTCTA | 0.126
70 | CGGTGCGC | 0.198
71 | CACTGCTC | -0.0274
72 | AAGACACT | 0.0796
73 | AGGTCTGG | -0.0901
74 | ATATACCC | 0.204
75 | CGCGAGCG | -0.106

Row | Sequence | PBM E-score
76 | ATGAGAAT | 0.0244
77 | CTATACAG | -0.0143
78 | CGCACGAG | -0.0371
79 | AGTTCTTA | -0.145
80 | ACACTCGG | 0.158
81 | GCTGGGAC | -0.0717
82 | ATACACTG | 0.19
83 | GACATACC | -0.0164
84 | GCACCCTA | -0.0666
85 | AATCCGTA | -0.133
86 | AATCTTTC | 0.00115
87 | GTATGAAC | 0.038
88 | AATCACTG | 0.374
89 | GGTTTCTA | -0.122
90 | CTGTGTTA | 0.169
91 | ATTATCCA | 0.0781
92 | GATTTAAC | -0.111
93 | CTACGGCA | -0.118
94 | GTCGTTCA | -0.0227
95 | CCGGCCAA | -0.0889
96 | ATAGTTAC | 0.132
97 | ACAGGTCG | -0.106
98 | AACCAACC | 0.138
99 | AATTGTGG | 0.00128
100 | ATTAATCG | 0.253

Row | Sequence | PBM E-score
101 | GGCTCTGA | 0.0033
102 | GTGGGGCA | 0.118
103 | ATCACTTA | -0.0248
104 | CTGTAGGC | -0.0958
105 | TCTCATCA | -0.131
106 | CACGTTAC | 0.0548
107 | CTTACTTA | -0.176
108 | GGTGTAAA | -0.105
109 | CTACACTA | 0.166
110 | CAGTGGAC | 0.0239
111 | CGGAGCAG | 0.069
112 | ATGCCTCA | -0.0848
113 | GCTGGCGA | -0.0575
114 | TAGTCGAA | 0.0212
115 | AGTACGAA | -0.0408
116 | CGCCAGCA | -0.107
117 | TATATGCA | 0.071
118 | GTAGTAGA | 0.0348
119 | CAACAACA | 0.234
120 | CCTGCATC | -0.00559
121 | AATGCCAG | -0.154
122 | ATGCGTAG | -0.0265
123 | ACGATACT | -0.0712
124 | CGGCGAGA | -0.0125
125 | ATGCCACC | 0.126

Row | Sequence | PBM E-score
126 | CTACATAC | 0.0864
127 | ATTATAGC | 0.0196
128 | CCCACCAA | 0.141
129 | AAGGCCCT | -0.164
130 | CTCAAAGC | -0.0228
131 | AGTCGCAA | 0.238
132 | ATTAATAG | 0.0496
133 | GAGAGCTC | -0.261
134 | AGATCCAG | 0.0668
135 | ATCAGTTC | 0.081
136 | AATCGCGT | 0.124
137 | CTCCACTA | 0.0341
138 | AGTTGGAA | -0.0358
139 | AATCGGTA | -0.119
140 | TCACCTAA | 0.085
141 | CATTCGCA | -0.0683
142 | GAATGTGA | -0.061
143 | TGGTCCAA | -0.0804
144 | CTAGGGAG | 0.0102
145 | GACCTAAA | -0.213
146 | AGGTAGGA | -0.148
147 | GAAAGCAA | -0.122
148 | ACACGATA | -0.0343
149 | AGCGTACG | -0.135
150 | AGGGTCAT | -0.00303

Row | Sequence | PBM E-score
151 | AACGTCGT | -0.104
152 | GTGTAGTA | 0.208
153 | CTGGCTGA | 0.143
154 | ACCTTAGC | 0.113
155 | CCGTAAGA | -0.167
156 | CTAGAACA | -0.0367
157 | AACCCCGA | -0.0129
158 | TGAGCGAA | 0.00769
159 | GGGCCCCC | -0.128
160 | AAACTGGA | -0.094
161 | CATTACAA | 0.0155
162 | TCAACCGA | -0.023
163 | CAGTATGG | 0.0483
164 | CGATCGTC | -0.0324
165 | CCACAGTC | 0.0789
166 | CAGCGTAA | -0.118
167 | AAACATAT | 0.164
168 | CCCGTCCC | 0.165
169 | CGAGCATA | -0.036
170 | GTAACTGA | -0.0714
171 | CAAGGCTC | -0.196
172 | AAGTGCCA | -0.145
